Experimental data: US6555692B1, “Preparation and use of bifunctional molecules having DNA sequence binding specificity” (California Institute of Technology, priority 1996, dated 2003)

Key:
5′-TGAAT-3′ = assay: Quantitative DNase I footprint titration; assay type: binding; conditions: weakest 5′-TG(A,T)3-3′ site; pH 7.0, 22° C.
Procedure: (§1) It has been shown that the Py/Py pair is approximately degenerate for recognition of A,T base pairs, affording generality with regard to targeting sequences of mixed A●T/T●A composition. (White, et al. Biochemistry 35, 12532-12537 (1996)). To test the extent of this degeneracy, the affinity of the hairpin polyamide ImPyPy-γ-PyPyPy-β-Dp was measured for eight possible five base pair 5′-TG(A,T)3-3′ match sites.

5′-TGTTT-3′ = assay: Quantitative DNase I footprint titration; assay type: binding
Procedure: as §1

CN(C)CCCNC(=O)CCNC(=O)c1cc(NC(=O)c2cc(NC(=O)c3cc(NC(=O)CCCNC(=O)c4cc(NC(=O)c5cc(NC(=O)c6nccn6C)cn5C)cn4C)cn3C)cn2C)cn1C [ImPyPy-γ-PyPyPy-β-Dp]
equilibrium association constant Ka (5′-TGAAT-3′): 1.8e+07 M⁻¹
difference in the equilibrium association constants between strongest and weakest site (5′-TGTTT-3′; eight 5′-TG(A,T)3-3′ sites, 5′-TGTTT-3′ vs 5′-TGAAT-3′): 12 fold
equilibrium association constant Ka (5′-TGTTT-3′; strongest 5′-TG(A,T)3-3′ site, pH 7.0, 22° C.): 2.1e+08 M⁻¹
